Source: patent US12338279B2, “Selective and potent inhibitory antibodies of myostatin activation” (SCHOLAR ROCK, INC., priority 2022, dated 2025)

Tests used:
[1] = test system: biotinylated human pro-myostatin; experiment: Biacore 8k SPR binding affinity, human pro-myostatin
Description: (§1) The Biacore™ 8 k SPR system was utilized to evaluate the binding affinity of myostatin antibodies to biotinylated human, murine, and cyno pro-myostatin. Biotin CAPture kit and sensor chips (Cytiva) were utilized in these experiments to immobilize the various antigens, followed by flowing a range of concentrations of each of the test antibodies.

[2] = biological target: T1, biotinylated cyno pro-myostatin (Macaca fascicularis, UniProt Q95J86); experiment: Biacore 8k SPR binding affinity, cyno pro-myostatin; parameters: species or system cynomolgus monkey
T1 construct: biotin (label)
Description: as §1

[3] = test system: biotinylated murine pro-myostatin; experiment: Biacore 8k SPR binding affinity, murine pro-myostatin; parameters: species or system mouse
Description: as §1

[4] = test system: dexamethasone-induced muscle atrophy in C57BL6 male mice; experiment: Dexamethasone-induced muscle atrophy mouse model; assay type: in vivo; conditions: 3 mg/kg/day; FIG. 6A, FIG. 9A
Description: To evaluate in vivo efficacy of the novel myostatin-selective inhibitors disclosed herein, the ability of the antibodies to preserve lean muscle mass was examined in a dexamethasone-induced atrophy mouse model. An excess of glucocorticoids directly stimulates myostatin production via interactions with a glucocorticoid response element in the myostatin promoter, thus inducing loss of muscle mass. As shown herein, antibodies of the disclosure prevented glucocorticoid-induced muscle atrophy.
C57BL6 male mice (n=8) at 13-14 weeks of age were given normal drinking water or water containing dexamethasone at a concentration of 2.5 mg/kg (17.5 grams dexamethasone per liter of drinking water) to induce atrophy. […] Body weight was measured daily. Body composition was measured by qNMR to determine lean mass pre-dosing, at day 7, and at day 14. After 14 days of dexamethasone exposure, the animals were terminated, and body weight and gastrocnemius weight were measured. […]
C57BL6 male mice (n=8) at 13-14 weeks of age were given normal drinking water or water containing dexamethasone at a concentration of 2.5 mg/kg to induce atrophy. […] Muscle mass at days −1, 6 and 13 was measured using qNMR. At the end of the study (day 14), serum from each animal was collected and changes in body weight, body composition (qNMR), left and right gastrocnemius weight, and left and right quadriceps weight were measured. […]

Ka [1] [M⁻¹ s⁻¹]	Kd (1/s) [1] [s⁻¹]	Ka (1/Ms) [2]	Ka [3] [M⁻¹ s⁻¹]	Kd (1/s) [3] [s⁻¹]	Molecule	body weight of dexamethasone treated mice [4]
813000	0.000213	8.21 E+05 1/Ms	815000	0.000265	Ab127: anti-pro/latent myostatin antibody; CDRs in Tables 2d-f, variable domains Table 3, chains Table 4 (antibody) heavy: EVQLVESGGGLVQPGGSLRLSCTASGFTFGSYPMDWVRQAPGKGLEWVSYISGRGDVTYYADSVKGRFTISRDNAKNTLYLQMNSLRAEDTAVYYCAKVQSPSELLWFGELLPVDYWGQGTLVTVSSASTKGPSVFPLAPCSRSTSESTAALGCLVKDYFPEPVTVSWNSGALTSGVHTFPAVLQSSGLYSLSSVVTVPSSSLGTKTYTCNVDHKPSNTKVDKRV[human IgG4 Fc with S228P (EU numbers) left out] light: DIQMTQSPSSLSASVGDRVTITCQASQVIKTWLNWYQQKPGKAPKLLIYDASNLQRGVPSRFSGSGSGTDFTFTISSLQPEDIATYYCQQSASTPITFGGGTKVEIKRTVAAPSVFIFPPSDEQLKSGTASVVCLLNNFYPREAKVQWKVDNALQSGNSQESVTEQDSKDSTYSLSSTLTLSKADYEKHKVYACEVTHQGLSSPVTKSFNRGEC	–
1.27e+06	0.000463	–	914000	0.000655	Ab128: anti-pro/latent myostatin antibody; CDRs in Tables 2d-f, variable domains Table 3, chains Table 4 (antibody) heavy: EVQLVESGGGLVQPGGSLRLSCTASGFTLSSYSMDWVRQAPGKGLEWVSYITGSGDTTYYADSVKGRFTISRDNAKNTLYLQMNSLRAEDTAVYYCARGFGWISGWAEDYFDYWGQGTLVTVSSASTKGPSVFPLAPCSRSTSESTAALGCLVKDYFPEPVTVSWNSGALTSGVHTFPAVLQSSGLYSLSSVVTVPSSSLGTKTYTCNVDHKPSNTKVDKRV[human IgG4 Fc with S228P (EU numbers) left out] light: DIQMTQSPSSLSASVGDRVTITCQASQSVYSYLNWYQQKPGKAPKLLIYGASRLEGGVPSRFSGSGSGTDFTFTISSLQPEDIATYYCQQHSTDQRTFGGGTKVEIKRTVAAPSVFIFPPSDEQLKSGTASVVCLLNNFYPREAKVQWKVDNALQSGNSQESVTEQDSKDSTYSLSSTLTLSKADYEKHKVYACEVTHQGLSSPVTKSFNRGEC	–
3.16e+06	0.000318	–	3.24e+06	0.000608	Ab121: anti-pro/latent myostatin antibody; CDRs in Tables 2d-f, variable domains Table 3, chains Table 4 (antibody) heavy: QVTLRESGPALVKPTQTLTLTCTVSGFSFSTSGMVVNWIRQPPGKALEWLAMIDWDADNIVYNSALKSRLTISKDTSKNQVVLTMTNMDPVDTATYYCAKDTGSGWFDAFDIWGQGTMVTVSSASTKGPSVFPLAPCSRSTSESTAALGCLVKDYFPEPVTVSWNSGALTSGVHTFPAVLQSSGLYSLSSVVTVPSSSLGTKTYTCNVDHKPSNTKVDKRV[human IgG4 Fc with S228P (EU numbers) left out] light: DIVMTQSPDSLAVSLGERATINCKSSQSVLYSSTNQNFLAWYQQKPGQPPKLLIYQASTLQNGVPDRFSGSGSGTDFTLTISSLQAEDVAVYYCQQYLTTPYTFGGGTKVEIKRTVAAPSVFIFPPSDEQLKSGTASVVCLLNNFYPREAKVQWKVDNALQSGNSQESVTEQDSKDSTYSLSSTLTLSKADYEKHKVYACEVTHQGLSSPVTKSFNRGEC	maintained the body weight of the dexamethasone treated mice to a greater extent than Ab2
